Measurements published in patent US20120077731A1 (Ablynx, published 2012).

Target: T1, Cyno plasma sIL-6R (cynomolgus monkey, UniProt A0A2K5WN54 60-396)
T1 construct: also called cynomolgus sIL-6R
T1 sequence: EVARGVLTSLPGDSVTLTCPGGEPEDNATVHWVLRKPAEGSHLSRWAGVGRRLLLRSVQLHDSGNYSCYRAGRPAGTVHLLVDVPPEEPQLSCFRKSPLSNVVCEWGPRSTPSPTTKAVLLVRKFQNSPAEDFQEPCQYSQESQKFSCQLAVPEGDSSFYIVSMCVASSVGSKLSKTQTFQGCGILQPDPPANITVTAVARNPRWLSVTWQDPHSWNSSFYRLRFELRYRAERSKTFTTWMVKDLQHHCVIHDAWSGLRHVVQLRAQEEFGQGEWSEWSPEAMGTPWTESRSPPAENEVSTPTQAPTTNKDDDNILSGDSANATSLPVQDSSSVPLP
Assay: plasma potency ELISA, titration of human IL-6 in cyno plasma

B1: Human IL-6 (ligand)
chain: not shown
notes: also called hIL-6; bio-IL-6
- EC50: 0.0501 µg/mL
